Experimental findings from the supplement of paper PMC11417369 are described below.

± gives the standard deviation of the averaged measurements. The list shows a part of the results.

In the assay the test system is PfAP2-LT AP2 domain (GST-tagged). Kind of assay: gcPBM binding intensity (ln(normalized median fluorescence intensity)); higher = stronger DNA binding. Put shortly: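 For binding intensity, the highest Masliner-normalised natural-log median intensity across replicate spots of either probe orientation was taken. Protein bound to the array was stained with Alexa488 anti-GST antibody and scanned at 488 nm. The protein, GST-tagged P. falciparum DNA-binding domains from E. coli at about 25 μg on average, had been applied for 1 h to an Agilent 4 × 180k array of primer-extended double-stranded 36-bp intergenic genomic probes and negative controls.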
As for TACATCATACGAACAGTGCATATTATTATTGTTCTG, the “gcPBM binding intensity (ln)” value was 8.89 ± 0.44. On to “ATGGATTATACGTGCACACATATATACAAATAAATA [CACACA_site640]”, for which the “gcPBM binding intensity (ln)” value was 9.26 ± 0.31. The result for “ACCATTTGTAGGTAAACACACATTATTATTAATATC [CACACA_site2635]” reads 8.93 ± 0.4; that for “GTATTTATAAATTATAGTACTTTGCGTATCATATAT [XGTACX_site7358]”, 8.83 ± 0.48; that for “ATTTTATATCTGGATAGTACTTTAATATTTCAAATG [XGTACX_site7304]”, 8.63 ± 0.38.

On to “GGATATTCATTAACCACACACACAAAAAAAATAAAA [CACACA_site3800]”, for which the “gcPBM binding intensity (ln)” value was 9.52 ± 0.53. In the case of “TACTTACCAAAATACACACACACACTAGATATATAA [CACACA_site5096]”, the “gcPBM binding intensity (ln)” value stood at 10 ± 0.23. “TATATATCATATGATACATGCAACAAAATGCATAAT [TGCATGCA_site205]”: the “gcPBM binding intensity (ln)” value worked out at 8.89 ± 0.25. For “ATGTATATTACTCATTGTACTTATATTTTCTTATTA [XGTACX_site8897]”, the “gcPBM binding intensity (ln)” value worked out at 8.9 ± 0.45. Take “AGATATTATAAAATATGTACATATATATATATATAT [XGTACX_site2088]”: the “gcPBM binding intensity (ln)” value is 9.67 ± 0.38. Consider “TAATTAGATTATTTTTGTACATATTATTATAGGTTA [XGTACX_site2077]”, for which the “gcPBM binding intensity (ln)” value is 8.61 ± 0.42. As to “AAATATAACATCATCACACACATATACTTTATATGC [CACACA_site1126]”, the “gcPBM binding intensity (ln)” value turned out to be 9.37 ± 0.27. The figure for “AGCTTCATATTATGGAGTACTATTAAAAATAAATAA [XGTACX_site2649]” is 8.36 ± 0.5; for “AAAGTAATAATGATTTGTACATATATATATATATAT [XGTACX_site8821]” it is 9.6 ± 0.4; for “TTATCTTTTTTCGTTTGTACGTAACCATATTACTAT [XGTACX_site8853]” it is 9.01 ± 0.45. With “ATTTTTTATGTTAATGCATGCTCATGTGTATTTCAT [TGCATGCA_site751]”, the “gcPBM binding intensity (ln)” value came to 9.35 ± 0.42. The result for “GGAATATATATACATACACACATATATATATATATA [CACACA_site1666]” reads 9.88 ± 0.29; that for “ATGCAAATGTGCATCACACACACTAATGGGTATGTA [CACACA_site2893]”, 9.41 ± 0.31; that for “AAAAATAATTATTCGTGTACAAAAAAAAAAATATAA [XGTACX_site439]”, 8.79 ± 0.51.

On to “AAAAAAAAAAAAAAAAGTACAAGCATTGCGTTTTAA [XGTACX_site6075]”, for which the “gcPBM binding intensity (ln)” value was found to be 8.56 ± 0.42. For “GTATATATATACCATTGTACTTTCGTAAAAATATTT [XGTACX_site4846]”, the “gcPBM binding intensity (ln)” value was 8.8 ± 0.4.

For “AAAAAAAAAAAAAAAACACACATACACGCACGCACA [CACACA_site7569]”, the “gcPBM binding intensity (ln)” value stood at 9.35 ± 0.23.

“AGAAAAAAAAAAAAAAAAATATATATATATATATAT [TGCATGCA_negctrl_site411]”: the “gcPBM binding intensity (ln)” value was found to be 9.8 ± 0.14.

For the sequence “TTTTATTATAATAATTGTACAAAAATTATTTAATAT [XGTACX_site6054]”, the “gcPBM binding intensity (ln)” value came out at 8.25 ± 0.4.

“TTAATTTATTATCTTTGTACACAATTAAAAAAAAAA [XGTACX_site3469]”: the “gcPBM binding intensity (ln)” value amounted to 8.08 ± 0.45. With “ATAAATATACATTATACCGACCATGTGGATATTATA [XGTACX_negctrl_site241]”, the “gcPBM binding intensity (ln)” value stood at 8.85 ± 0.35.

In the case of “ATTATACATATTATATGTACATATATAAATAAATAA [XGTACX_site7076]”, the “gcPBM binding intensity (ln)” value was determined as 8.7 ± 0.38. For “TTATTTTTATATTTTAATTTTAAAAAAATTTTAATT [CACACA_negctrl_site777]”, the “gcPBM binding intensity (ln)” value was determined as 7.89 ± 0.6. With “TTTTGGTTTTGTTCTACACACATAAAAAAAAAAAAG [CACACA_site2276]”, the “gcPBM binding intensity (ln)” value was 8.65 ± 0.33. On to “TTTCTATTTATTAATACATGCAAAATAAAGTAAAGT [TGCATGCA_site209]”, for which the “gcPBM binding intensity (ln)” value stood at 8.69 ± 0.3.

As for “ATATATCAATATGGAATATATATATATATATATATA [TGCATGCA_negctrl_site502]”, the “gcPBM binding intensity (ln)” value amounted to 9.535 ± 0.078. As to “ATATATATAAATAAATGTACATAAATAATATATTAT [XGTACX_site5419]”, the “gcPBM binding intensity (ln)” value is 8.87 ± 0.45.

Consider “TATATATATATATATATATTTATGTATTTATTTAAT [TGCATGCA_negctrl_site179]”, for which the “gcPBM binding intensity (ln)” value was 9.27 ± 0.39. For the sequence “AGCTGAAAAAAAAGCTTGCACACGTATTTGCTTTAT [CACACA_site1512]”, the “gcPBM binding intensity (ln)” value is 9.14 ± 0.35. For “AATAATAAGAATAACGCATGCACATATAATATAGAA [TGCATGCA_site3]”, the “gcPBM binding intensity (ln)” value came out at 9.21 ± 0.49. In the case of “TTTTTTTGTTATATCCTGCACTTCTTAACTATATTA [GTGCAC_site9807]”, the “gcPBM binding intensity (ln)” value stood at 8.93 ± 0.53. With “CATATTATATTCTGCTTACACACATATATATATATA [CACACA_site3059]”, the “gcPBM binding intensity (ln)” value was found to be 9.395 ± 0.078.

“GTTTTTTATATAAGGTGGTCAACATTGTAATGTTAA [XGTACX_site3204]”: the “gcPBM binding intensity (ln)” value worked out at 8.6 ± 0.37. The figure for “AATATGTAGTAATCAAGTACTAATGTCTTAATTCGG [XGTACX_site308]” is 8.82 ± 0.38.

Take “GTATATATGTATATGTGTACACATATTCTTAACTCA [XGTACX_site309]”: the “gcPBM binding intensity (ln)” value was 9.02 ± 0.46. For “ATATAAATTGGCAATAGTACATAAAGGCATAGAAAG [XGTACX_site2674]”, the “gcPBM binding intensity (ln)” value amounted to 9.03 ± 0.44. Turning to “AAATTACACATCCATACACACATATTTTTTTTAATT [CACACA_site5242]”, the “gcPBM binding intensity (ln)” value was 9.11 ± 0.38.

As to “AATAATAGAAGCACCCACCCACCACCACCCACACAT [CACACA_negctrl_site1033]”, the “gcPBM binding intensity (ln)” value worked out at 10.46 ± 0.028. With “GAGAAACTTGTTTAAACATGCACAAAAAAAAAAAAA [TGCATGCA_site340]”, the “gcPBM binding intensity (ln)” value amounted to 8.53 ± 0.49. With “TATATGGAAAATTAAAGTACTAAAGAATAAATAGAA [XGTACX_site8796]”, the “gcPBM binding intensity (ln)” value amounted to 8.62 ± 0.44. As to “TATAAAATAAATTGTGCACACATATTTATAAATATG [CACACA_site2330]”, the “gcPBM binding intensity (ln)” value stood at 9.1 ± 0.42. For “TATAGATACATATACACACACACACCGACATATATA [CACACA_site9138]”, the “gcPBM binding intensity (ln)” value turned out to be 10.2 ± 0.14.

As for GTAGTTACATATAGGGTGCTCCAATAGTTGACCTCG, the “gcPBM binding intensity (ln)” value was 8.7 ± 0.42. As for “TCATAGGTTCAAAAGGGTACATTAATACATACATAT [XGTACX_site2236]”, the “gcPBM binding intensity (ln)” value worked out at 8.78 ± 0.43.

“AAATAAAAAAAGGGAACATGCAATATGTACAAATAT [TGCATGCA_site869]”: the “gcPBM binding intensity (ln)” value is 9.18 ± 0.49.

For “CATATATATTGATATGCACACCTATGTATTGATGTA [CACACA_site8269]”, the “gcPBM binding intensity (ln)” value came to 9.03 ± 0.4. On to “AGCATTTTTCATTTTGCACACATGTTTTATGGGTAT [CACACA_site5839]”, for which the “gcPBM binding intensity (ln)” value came to 9.52 ± 0.37. As for “TCTTTTTTCTTTTTTTCACACATTATTTTTTAAATA [CACACA_site5197]”, the “gcPBM binding intensity (ln)” value turned out to be 8.66 ± 0.5. With “ACGATGAATATGTAAAGTACGCAAATGTAACAATAT [XGTACX_site728]”, the “gcPBM binding intensity (ln)” value was 9.26 ± 0.39.

Take “TAAGACAATAAATGCTGTACAATTGAATATCTTGGA [XGTACX_site636]”: the “gcPBM binding intensity (ln)” value was determined as 8.85 ± 0.41.

As for “TTATAAAAATTTAGTTGTACATGTCAAATTATCAAT [XGTACX_site7229]”, the “gcPBM binding intensity (ln)” value was determined as 8.54 ± 0.42. With “TATTTTATTATTATTATTTCTTTATAGTGTATTCTA [CACACA_negctrl_site517]”, the “gcPBM binding intensity (ln)” value was 8.65 ± 0.59.
